Test results published in PubChem BioAssay (NCATS).
The shares of active, inactive and inconclusive entries below differ from those in the screen. Potencies of inconclusive entries are left out as doubtful fits. The source made the active and inactive calls. The call rests on the fitted dose curve; in most records, active means well fitted curve in the direction sought with a large enough effect; inconclusive means small, poorly fitted or top-dose-only effect, or another doubt; inactive means no such curve, though single readings can be large; an effect the other way counts as inactive or inconclusive.

Assays:
[1] = qHTS of pediatric cancer cell lines to identify multiple opportunities for drug repurposing: Primary screen for SK-N-MC cells (AID 1347093); conditions: SK-N-MC viability, CellTiter-Glo luminescence, 48 h; activity change, negative = cytotoxic: at 46 µM (top of the series)
Outline: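 Metabolically active cells were quantified by ATP-dependent luminescence (CellTiter-Glo, 15 min at room temperature) following 48 h treatment. Cells had been plated at 500-1,000 per well and settled for 5 h beforehand.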

[2] = qHTS of pediatric cancer cell lines to identify multiple opportunities for drug repurposing: Primary screen for NB-EBc1 cells (AID 1347095)
Outline: (§1)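 Cells seeded at 500-1,000 cells/well in growth media, rested 5 hours at 37 degrees C, 5% CO2, then dosed; MIPE compounds at 11-point (from 0.78 nM) and NPC at 8-point (from 0.59 nM) final concentrations. Viability by CellTiter-Glo luminescence after 48 hours.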

[3] = qHTS of pediatric cancer cell lines to identify multiple opportunities for drug repurposing: Primary screen for NB1643 cells (AID 1347099); further: nearly all actives have a fitted effect of over 50% in size
Outline: as §1

[4] = qHTS of pediatric cancer cell lines to identify multiple opportunities for drug repurposing: Primary screen for U-2 OS cells (AID 1347096); further: nearly all actives have a fitted effect of over 50% in size
Outline: (§2)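 Cells (500-1,000/well) in growth media were settled 5 h at 37 degrees C, then given compounds for 48 h. Viability was read as CellTiter-Glo luminescence. Primary runs used MIPE at 11 points (0.78 nM-46 µM) and NPC at 8 points (0.59 nM-46 µM); follow-ups used 11 points.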

[5] = qHTS of pediatric cancer cell lines to identify multiple opportunities for drug repurposing: Primary screen for Saos-2 cells (AID 1347097); conditions: Saos-2 viability, CellTiter-Glo ATP luminescence, 48 h; activity change, negative = cytotoxic: at 46 µM (top of the series); further: nearly all actives have a fitted effect of over 40% in size
Outline: as §1

[6] = qHTS of pediatric cancer cell lines to identify multiple opportunities for drug repurposing: Primary screen for SK-N-SH cells (AID 1347098); further: nearly all actives have a fitted effect of over 65% in size
Outline: (§3)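 Cells (500-1,000/well) rested 5 h, then received compounds for 48 h; metabolically active cells were measured by CellTiter-Glo luminescence. Final concentrations spanned up to 46 µM (MIPE, 11-point) or 0.59 nM-46 µM (NPC, 8-point) in primary screens, 11-point in follow-ups.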

[7] = qHTS of pediatric cancer cell lines to identify multiple opportunities for drug repurposing: Primary screen for BT-37 cells (AID 1347094)
Outline: as §1

[8] = qHTS of pediatric cancer cell lines to identify multiple opportunities for drug repurposing: Primary screen for BT-12 cells (AID 1347101); further: nearly all actives have a fitted effect of over 25% in size
Outline: as §3

[9] = qHTS of pediatric cancer cell lines to identify multiple opportunities for drug repurposing: Primary screen for LAN-5 cells (AID 1347100); conditions: LAN-5 neuroblastoma viability, CellTiter-Glo luminescence, 48 h; activity change, negative = cytotoxic: at 46 µM (top of the series)
Outline: as §2
Potency means the concentration at half of the fitted maximal effect; tags describe the fitted curve by direction and shape.

In the case of COc1ccc(Cl)cc1C(=O)NCCc1ccc(S(=O)(=O)NC(=O)NC2CCCCC2)cc1, the Potency [1] is reported as inconclusive [cytotoxic, full curve, poor fit], the Potency [2] is reported as “inactive” and the Potency [3] is reported as “inactive”.

For COc1ccc2cc([C@H](C)C(=O)O)ccc2c1, the Potency [1] was inconclusive [cytotoxic, partial curve], the Potency [4] was “inactive” and the Potency [5] was inconclusive [cytotoxic, partial curve, poor fit]. The Potency [6] was inconclusive [cytotoxic, single point] and the Potency [3] was inconclusive [cytotoxic, partial curve, poor fit].

In the case of O=C(Nc1ccccc1-c1cn2c(CN3CCNCC3)csc2n1)c1cnc2ccccc2n1, the Potency [1] is reported as inconclusive [cytotoxic, partial curve, poor fit], the Potency [7] is reported as active: 27.3 µM and the Potency [5] is reported as inconclusive [cytotoxic, partial curve, poor fit]. The Potency [8] was inconclusive [cytotoxic, partial curve, poor fit].

With N=C(N)N the Potency [1] was “inactive”, the Potency [7] was “inactive” and the Potency [5] was “inactive”. The Potency [8] was “inactive”.

For CC[C@@]1(O)C[C@H](O[C@H]2C[C@H](N(C)C)[C@H](O[C@H]3C[C@H](O)[C@H](O[C@H]4CCC(=O)[C@H](C)O4)[C@H](C)O3)[C@H](C)O2)c2c(cc3c(c2O)C(=O)c2c(O)cccc2C3=O)[C@@H]1C(=O)OC, the Potency [1] was active: 18.7 µM, the Potency [7] was active: 0.385 µM and the Potency [6] was inconclusive [cytotoxic, full curve]. The Potency [3] was inconclusive [cytotoxic, single point] and the Potency [8] was inconclusive [cytotoxic, full curve].

In the case of O=C(O)CCCCCC(=O)NN=C1CCCC1, the Potency [1] is reported as inconclusive [cytotoxic, full curve, poor fit], the Potency [4] is reported as “inactive” and the Potency [5] is reported as “inactive”. The Potency [6] was inconclusive [cytotoxic, single point].

With COc1ccc(-c2cc(=S)ss2)cc1 the Potency [1] was “inactive”, the Potency [2] was inconclusive [cytotoxic, partial curve] and the Potency [4] was “inactive”. The Potency [8] was inconclusive [cytotoxic, partial curve, poor fit].

With COC(=O)C1=C(C)NC(C)=C(C(=O)OC)C1c1ccccc1[N+](=O)[O-] the Potency [1] was inconclusive [cytotoxic, single point], the Potency [2] was inconclusive [cytotoxic, single point] and the Potency [6] was active: 21.7 µM.

With COc1ccc2c3c1OC1C[C@@H](O)C=C[C@@]31CCN(C)C2 (stereo partly drawn) the Potency [1] was inconclusive [cytotoxic, single point], the Potency [2] was inconclusive [cytotoxic, single point] and the Potency [6] was inconclusive [cytotoxic, full curve]. For the same molecule, the Potency [3] was inconclusive [cytotoxic, single point] and the Potency [8] was “inactive”.

For COc1ccc(CC2=NN3C([C@@H](CCc4ccccc4)[C@@H](C)O)=NC(C)C3C(=O)N2)cc1OC (stereo partly drawn), the Potency [1] was inconclusive [cytotoxic, partial curve, poor fit], the Potency [2] was “inactive” and the Potency [5] was “inactive”. For the same molecule, the Potency [6] was inconclusive [cytotoxic, single point] and the Potency [3] was inconclusive [cytotoxic, partial curve].

With CN(C(Cc1ccc(OS(=O)(=O)c2cccc3cnccc23)cc1)C(=O)N1CCN(c2ccccc2)CC1)S(=O)(=O)c1cccc2cnccc12 (stereo not drawn) the Potency [1] was active: 0.418 µM, the Potency [2] was inconclusive [cytotoxic, partial curve] and the Potency [4] was inconclusive [cytotoxic, partial curve, poor fit]. For the same molecule, the Potency [5] was inconclusive [cytotoxic, partial curve], the Potency [3] was inconclusive [cytotoxic, partial curve] and the Potency [9] was inconclusive [cytotoxic, full curve]. The Potency [8] was inconclusive [cytotoxic, partial curve].

For Cc1ccccc1C(C(=O)NC1CCCC1)N(C(=O)Cn1cnc2ccccc21)c1cccc(F)c1 (stereo not drawn), the Potency [1] was inconclusive [cytotoxic, single point], the Potency [7] was inconclusive [cytotoxic, partial curve, poor fit] and the Potency [5] was inconclusive [cytotoxic, partial curve]. For the same molecule, the Potency [8] was inconclusive [cytotoxic, partial curve].
